{"source": "ChEMBL document CHEMBL4888484", "about": "“Replenishing the malaria drug discovery pipeline: Screening and hit evaluation of the MMV Hit Generation Library 1 (HGL1) against asexual blood stage Plasmodium falciparum ,using a nano luciferase reporter read-out” (2022)", "note": "About 540 (0.36%) of roughly 150,000 compounds showed an effect of 50% or more. The list shows a part of the results.", "data": [{"test_system": "Plasmodium falciparum", "experiment": "Primary screen in NF54 nanoGlo assay, in single point, at 2uM, 72h; a lower Z score goes with more inhibition", "type": "functional, Erythrocyte", "details": "timepoint 72 hour", "units": {"% Inhibition": "%"}, "values": [{"smiles": "CCOc1cccc(NC(=O)N(C)CCC2(O)CCCC2)c1", "% Inhibition": 4, "Z score": -0.59}, {"smiles": "CCCn1cnc(NC(=O)c2cccc(CN3CCC[C@H](O)C3)c2)n1", "% Inhibition": -15, "Z score": 2.28}, {"smiles": "O=S(=O)(NCc1cccnc1-n1ccnc1)c1c[nH]c2cccc(F)c12", "% Inhibition": -12, "Z score": 1.82}, {"smiles": "Cc1cccc(CS(=O)(=O)N2CC(n3ccnn3)C2)c1", "% Inhibition": -5, "Z score": 0.61}, {"smiles": "Cc1ccccc1-n1cc(CN2CCNC(=O)[C@@H]2c2ccccc2Cl)nn1", "% Inhibition": -2, "Z score": 0.44}, {"smiles": "Cc1ocnc1CNC(=O)N1CC(C)(C)C[C@H]1c1ccccc1", "% Inhibition": -1, "Z score": 0.13}, {"smiles": "CN(C(=O)c1ccnn1C)c1ccc(C(F)(F)F)cc1Cl", "% Inhibition": 9, "Z score": -1.69}, {"smiles": "CCN1CCN(C(=O)COc2cccnc2)[C@@H](C)C1=O", "% Inhibition": -4, "Z score": 0.7}, {"smiles": "O=S(=O)(c1cccc(-c2nnc3n2CCCC3)c1)N1CCCC1", "% Inhibition": -3, "Z score": 0.56}, {"smiles": "O=C(CCn1cncn1)N1CCCCO1", "% Inhibition": -11, "Z score": 1.67}, {"smiles": "O=C(Nc1ccc(S(=O)(=O)Nc2nccs2)cc1)C1CN(c2nc3ccc(F)cc3s2)C1", "% Inhibition": -4, "Z score": 0.71}, {"smiles": "Cc1nc2ccc(Cl)cn2c1[C@H]1CC(=O)Nc2[nH]nc(-c3ccco3)c21", "% Inhibition": -5, "Z score": 0.95}, {"smiles": "CN(C(=O)c1ccc(N2C(=O)CCS2(=O)=O)cc1Cl)c1ccccc1", "% Inhibition": -14, "Z score": 1.83}, {"smiles": "O=C(N[C@@H]1[C@@H]2CCO[C@@H]2[C@H]1N1CCCCC1)c1ccn2nnnc2c1", "% Inhibition": 3, "Z score": -0.65}, {"smiles": "Cc1cnc(C)c(NCCn2cnc(C)c2C)n1", "% Inhibition": -6, "Z score": 0.69}, {"smiles": "C[n+]1cnc(-c2ccccc2)cc1-c1ccccc1", "% Inhibition": 1, "Z score": -0.07}, {"smiles": "COc1ccc(C2CCNCC2NC(=O)CCC2CCOC2)cc1", "note": "(configuration not stated)", "% Inhibition": -14, "Z score": 2.64}, {"smiles": "CC(C)N1CCC(NC(=O)CC#N)C1c1ccc(Cl)c(F)c1", "note": "(configuration not stated)", "% Inhibition": 0, "Z score": 0.02}, {"smiles": "O=C(NCc1cccnc1)c1cc(-n2ccnc2)ccn1", "% Inhibition": -5, "Z score": 0.89}, {"smiles": "CCOc1cc(C(=O)NCCc2ccccc2OC)ncn1", "% Inhibition": 0, "Z score": 0.08}, {"smiles": "CCN(CC)CCN(CC(=O)N1CCCN(c2ccc(-c3ccccc3Cl)nn2)CC1)C(=O)COC", "% Inhibition": -7, "Z score": 0.81}, {"smiles": "CC(=O)N1CC(C(=O)NCc2oc(C(C)C)nc2C)C1", "% Inhibition": -1, "Z score": 0.13}, {"smiles": "COC(=O)c1c(NC(=O)c2cc3n(n2)CCC3)c2cccnc2n1C", "% Inhibition": -24, "Z score": 3.62}, {"smiles": "Cc1nc[nH]c1C(=O)N(C)Cc1csc(-c2ccccc2)n1", "% Inhibition": -11, "Z score": 2.15}, {"smiles": "O=C1CCC2(CCN(Cc3ccc(C#CCO)cc3)CC2)CN1C[C@H]1CCCO1", "% Inhibition": 2, "Z score": -0.36}, {"smiles": "Cc1ncsc1CN[C@@H](C)c1coc2ccccc12", "% Inhibition": 14, "Z score": -1.81}, {"smiles": "COc1cc(CN2C[C@H](NC(C)=O)[C@@H](c3ccc(C)cc3)C2)cc(OC)c1", "% Inhibition": -26, "Z score": 2.79}, {"smiles": "Cc1cc(C(=O)N[C@@H](CC(F)F)C(=O)O)cc(Cl)c1Br", "% Inhibition": -19, "Z score": 2.13}, {"smiles": "O=C1CCCCC1C1CCCCCN1C(=O)N1CCOCC1", "note": "(configuration not stated)", "% Inhibition": 2, "Z score": -0.39}, {"smiles": "O=C(CN1CCN(S(=O)(=O)c2cccc(F)c2)CC1)NC1CCCCCC1", "% Inhibition": -8, "Z score": 0.86}, {"smiles": "COc1ccc([C@H]2CC(=O)Nc3ncn(-c4ccc(C(F)(F)F)cc4)c32)cc1OC", "% Inhibition": -1, "Z score": 0.13}, {"smiles": "CCn1ccc(C(=O)Nc2cc(-c3c(C)c4ccccc4n3CC)n[nH]2)n1", "% Inhibition": -7, "Z score": 0.76}, {"smiles": "N#CC1(c2ccc(Cl)cc2Cl)CCC(=O)CC1", "% Inhibition": -5, "Z score": 0.63}, {"smiles": "OCCOc1cncc(N2CCOC3(CCCCCC3)C2)n1", "% Inhibition": 8, "Z score": -0.67}, {"smiles": "CS(=O)(=O)c1cccc(OCCn2ccnn2)c1", "% Inhibition": 1, "Z score": -0.15}, {"smiles": "Cc1nn(-c2ccc(Cl)cc2)cc1-c1noc(C(=O)NC2CCN(Cc3ccccc3)CC2)n1", "% Inhibition": 18, "Z score": -2.15}, {"smiles": "OCc1ccc(Cl)c(NCc2noc([C@@H]3COc4ccccc4O3)n2)c1", "% Inhibition": -2, "Z score": 0.31}, {"smiles": "CC(C)(C)n1ncnc1CN1CCCC1CC(O)c1cccs1", "note": "(configuration not stated)", "% Inhibition": 3, "Z score": -0.55}, {"smiles": "O=C(CCC1CCCC1)N[C@H]1CCCCNC1=O", "% Inhibition": 6, "Z score": -0.53}, {"smiles": "Cc1ccc(C(=O)N2CCc3c(c(-c4nncn4CC4CC4)nn3C)C2)cn1", "% Inhibition": -5, "Z score": 0.67}, {"smiles": "c1ccc(CNCCN2CCc3ccccc3C2)cc1", "% Inhibition": -11, "Z score": 1.86}, {"smiles": "O=C(Nc1ccc2c(c1)OCCCO2)c1ccc2c(c1)CCCC2", "% Inhibition": -11, "Z score": 1.37}, {"smiles": "CC1CN(C(=O)c2cc(C(N)=O)c[nH]2)CC(C)N1", "note": "(configuration not stated)", "% Inhibition": -10, "Z score": 1.23}, {"smiles": "CC(C)N1C[C@@H](C(=O)N2CC(Oc3ccccc3F)C2)CC1=O", "% Inhibition": -5, "Z score": 0.71}, {"smiles": "CCc1nnc2ccc(S(=O)(=O)N(CC(=O)OC)c3cc(F)cc(F)c3)cn12", "% Inhibition": -7, "Z score": 1.12}, {"smiles": "C#CCN(Cc1cccc(C)n1)S(=O)(=O)c1sccc1OC", "% Inhibition": -1, "Z score": 0.2}, {"smiles": "C[C@@H](c1ccc(Cl)cc1)N1CCc2c(O)nn(C)c2C1", "% Inhibition": -8, "Z score": 0.71}, {"smiles": "CCn1ccc(C(=O)N2CCCn3nc(-c4ccncc4)cc3C2)n1", "% Inhibition": -27, "Z score": 5.09}, {"smiles": "O=C(COC1CCCCC1)Nc1nc2c(ccc3ccccc32)s1", "% Inhibition": -10, "Z score": 1.94}, {"smiles": "CC[N+](CC)(CC(=O)OC1CC2CCC1(C)C2(C)C)CC(=O)OC1CC2CCC1(C)C2(C)C", "note": "(configuration not stated)", "% Inhibition": 77, "Z score": -8.45}, {"smiles": "COC(=O)[C@H](C)NC(=O)n1ncc2ccccc21", "% Inhibition": -15, "Z score": 3.02}, {"smiles": "CC1CC(C)CN(C2CCCCC2=O)C1", "note": "(configuration not stated)", "% Inhibition": -6, "Z score": 0.63}, {"smiles": "CCC1Oc2cc(C(C)NCc3ccncc3Cl)ccc2NC1=O", "note": "(configuration not stated)", "% Inhibition": -2, "Z score": 0.22}, {"smiles": "O=C(c1ccccc1)N1CCC(N2CC3(CCCC3)[C@H]2c2ccccc2)CC1", "% Inhibition": -5, "Z score": 0.84}, {"smiles": "CCOc1cc2c(cc1OCC)[C@H](c1ccc(OC)c3ccccc13)NCC2", "% Inhibition": -1, "Z score": 0.16}, {"smiles": "COc1ccc([C@H]2CN(C)C[C@@H]2NS(=O)(=O)N2CCCCC2)cc1", "% Inhibition": -4, "Z score": 0.85}, {"smiles": "O=C(N[C@@H]1CCCC[C@H]1NC(=O)C1CCN(C(=O)Cc2cccs2)CC1)c1ccccc1", "% Inhibition": -7, "Z score": 0.74}, {"smiles": "Cc1cc(C(=O)Cn2cc(Cl)c(=O)[nH]c2=O)c(Cl)cc1F", "% Inhibition": -1, "Z score": 0.1}, {"smiles": "N#C[C@@H](C(=O)NCc1ccc(OCc2cccnc2)cc1)c1nc2cc(F)ccc2s1", "% Inhibition": -2, "Z score": 0.25}, {"smiles": "CCOc1ccc(C(=O)N[C@H]2C[C@H](c3nnc(CO)n3CC)C2)o1", "% Inhibition": -17, "Z score": 2.66}, {"smiles": "Cc1cc(C)n(-c2nnc(Nc3ccc(F)cc3C)c3ccccc23)n1", "% Inhibition": 10, "Z score": -1.94}, {"smiles": "CCc1nccn1CCN1CCn2nc(CO)cc2C1", "% Inhibition": -25, "Z score": 2.57}, {"smiles": "COc1ccccc1OC(C)(C)C(=O)NCc1ncc[nH]1", "% Inhibition": 2, "Z score": -0.26}, {"smiles": "Cc1cc(C(=O)N2CCOCC2)nn1CC(=O)N1CCCc2ccccc21", "% Inhibition": -6, "Z score": 0.79}, {"smiles": "Cc1cccc(OC2CN(C[C@H](O)C3CC3)C2)c1", "% Inhibition": 3, "Z score": -0.61}, {"smiles": "c1cc2[nH]nnc2cc1NC1CCC2(CC1)CC2", "% Inhibition": -5, "Z score": 0.94}, {"smiles": "CCOc1cc(CN[C@@H](C)c2ncn[nH]2)c(Cl)cc1OC(C)C", "% Inhibition": -7, "Z score": 0.98}, {"smiles": "Cc1nc(-n2nnc(C(=O)NCc3ccc4c(c3)OCO4)c2C)sc1C", "% Inhibition": -15, "Z score": 2.87}, {"smiles": "Cc1cc(N2CCN(c3nnc(C)c(C)c3C(N)=O)CC2)ncn1", "% Inhibition": -7, "Z score": 1.17}, {"smiles": "COc1ccccc1S(=O)(=O)N(Cc1cccnc1)C1CC1", "% Inhibition": -1, "Z score": 0.1}, {"smiles": "CCOC[C@H]1CCC2(CCN(S(=O)(=O)c3cc(F)cc(F)c3)CC2)O1", "% Inhibition": 1, "Z score": -0.24}, {"smiles": "Cc1cc(-c2ccccc2)nc(Nc2nc(-c3ccccc3)c(CC(=O)O)s2)n1", "% Inhibition": 1, "Z score": -0.08}, {"smiles": "CC(C)(C)OC(=O)NCC(C)(C)c1nc(-c2ccncc2)no1", "% Inhibition": 12, "Z score": -1.61}, {"smiles": "CN1CCN([C@H]2COC[C@@H]2NC(=O)[C@H]2CC[C@@H](O)CC2)CC1", "% Inhibition": -10, "Z score": 1.22}, {"smiles": "CC(C)CCNC(=O)C(=Cc1ccccc1OCC#N)C(=O)NCCC(C)C", "% Inhibition": 1, "Z score": -0.18}, {"smiles": "O=C(CC1Cc2ccccc2C1)NCCc1noc([C@@H]2CCCO2)n1", "% Inhibition": -3, "Z score": 0.63}, {"smiles": "CC(NCCOc1cccc(C#N)c1)C1CCCOC1", "note": "(configuration not stated)", "% Inhibition": -11, "Z score": 1.22}, {"smiles": "CCNC(=O)c1cc(NS(=O)(=O)c2ccc(C(C)C)cc2)cnc1N1CCNCC1", "% Inhibition": 3, "Z score": -0.45}, {"smiles": "Cc1ccc(-c2ocnc2C(=O)Nc2ccc(F)cc2F)s1", "% Inhibition": 0, "Z score": 0.05}, {"smiles": "COc1cc(NC(=O)CCc2c(-c3ccc(F)cc3)nc3ccccn23)cc(OC)c1", "% Inhibition": -1, "Z score": 0.08}, {"smiles": "N#CC1(C(=O)NCC2(O)CCCCCC2)CCCCC1", "% Inhibition": 5, "Z score": -0.86}, {"smiles": "Cc1cccc(-n2ncnc2C[C@H](C)n2cccn2)n1", "% Inhibition": -18, "Z score": 1.9}, {"smiles": "O=C1CCCCN1Cc1nc(Cc2ccc(F)c(Br)c2)no1", "% Inhibition": -9, "Z score": 1.81}, {"smiles": "CCCS(=O)(=O)N1CC(=O)N(c2cc(C)cc(C)c2)[C@](C)(C(=O)NC2CCCCCC2)C1", "% Inhibition": -4, "Z score": 0.5}, {"smiles": "CC[C@](O)(CCCO)CNC(=O)c1nc(C)c[nH]1", "% Inhibition": -2, "Z score": 0.49}, {"smiles": "COc1cc(C(=O)N(C)Cc2ccnc(C)c2)ccn1", "% Inhibition": -8, "Z score": 1.45}]}]}
